# Results taken from PubChem BioAssay AID504832 (National Center for Advancing Translational Sciences (NCATS), 2011).
# Among all 310,000 compounds or so, about 18,000 (5.8%) were called active. The inconclusive results got no clear call from the source; some entries with a clear call stand among them for comparison. The call rests on the fitted dose curve; in most records, active means well fitted inhibition curve with a large enough effect; inconclusive means small, poorly fitted or top-dose-only effect, or another doubt; inactive means no such curve, though single readings can be large or run the other way. No potency is given beside an inconclusive call; the fits are too rough.
# Assay: Primary qHTS for delayed death inhibitors of the malarial parasite plastid, 48 hour incubation
# Details: P. falciparum luciferase growth in erythrocytes; series mostly up to 28.7 µM
# Method in brief: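 Growth was read as firefly luciferase luminescence after a 48 h, 37 C, 5% CO2 exposure of compounds to reporter-bearing P. falciparum cultures (0.1% parasitemia, 2% hematocrit final) in Albumax-supplemented RPMI 1640.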
# Potency means the concentration at half of the fitted maximal effect; tags describe the fitted curve by direction and shape.
row,Compound,Potency
1,COc1ccccc1N(CN1CCCC1=O)C(=O)c1c(F)cccc1Cl,"inconclusive [inhibitor, partial curve]"
2,CCOC(=O)c1snc2c(=O)[nH]cnc12,inactive
3,CC(/C=C/c1ccc2c(c1)OCO2)=N\NC(=O)c1ccccc1,inactive
4,COc1ccccc1CP(=O)(c1ccccc1)c1ccccc1,inactive
5,CC1(C)Cc2c(c(N3CCOCC3)nc3sc(C(=O)N4CCCCC4)c(N)c23)CO1,inactive
6,CCOc1ccccc1C(=O)Nc1cnn(Cc2ccc(F)cc2)c1,inactive
7,O=C(COc1ccccc1F)N1CCN(CCN2C(=O)c3cccc4cccc(c34)C2=O)CC1,"inconclusive [inhibitor, partial curve, poor fit]"
8,CC1=NN(c2ccccc2)C(=O)/C1=C/C=C/c1ccc(N(C)C)cc1,"inconclusive [inhibitor, partial curve]"
9,O=C(N/N=C/c1cccs1)c1cc(-c2cccc3ccccc23)n[nH]1,inactive
10,CCCCn1c(N)c(N(CCOC)C(=O)c2cc(S(=O)(=O)N3CCCCC3)ccc2C)c(=O)[nH]c1=O,"inconclusive [inhibitor, partial curve, poor fit]"
11,O=C(Nc1ccc(F)cc1)C1CCN(c2ncnc3c2nc2n3CCCCC2)CC1,"inconclusive [inhibitor, single point]"
12,O=C(N/N=C/C(Br)=C/c1ccccc1)c1ccncc1,active: 10.4 µM
13,C[C@@H](C(=O)Nc1ccc2ccccc2c1)[C@H]1C[C@]1(C)[C@H](NS(=O)(=O)c1ccccc1)c1ccccc1,active: 1.04 µM
14,O=C(c1ccc(Nc2cccc(C(F)(F)F)c2)nc1)N1CCCC1,"inconclusive [inhibitor, single point]"
15,CN(C)CCCNc1ccc(-c2cc(Nc3cccc(Cl)c3)ncn2)cn1,active: 1.85 µM
16,O=C(Oc1cccc([N+](=O)[O-])c1)c1cc(-c2ccccc2)nc2ccccc12,inactive
17,CNC(=O)c1c(NC(=O)c2ccc(S(=O)(=O)N3CCCCC3C)cc2)sc2c1CCN(C)C2 (configuration not stated),"inconclusive [inhibitor, single point]"
18,CCOc1cc(/C=C2/C(=N)N3C(=NC2=O)SN=C3S(C)(=O)=O)ccc1OC(=O)c1ccco1,"inconclusive [inhibitor, single point]"
19,CCOC(=O)C(=CNc1ccccc1C)C(=O)OCC,inactive
20,CCCCCCSc1ccc([C@@H]2[C@H]3C(=O)N(CC)C(=O)[C@H]3[C@]3(C(=O)OC)CCCN23)cc1,"inconclusive [inhibitor, single point]"
21,Cc1ccccc1NC(=S)NCc1cccn1C,inactive
22,CCOc1ccc(Oc2c(/C=N/NC(N)=O)c(C)nn2-c2ccccc2)cc1,"inconclusive [inhibitor, single point]"
23,Cc1cc(Nc2nc3c(c(=O)n(C)c(=O)n3C)n2C)n(-c2ccc(Cl)cc2)n1,"inconclusive [inhibitor, single point]"
24,CCOC(=O)C1(Cc2ccccc2)CCN(Cc2cn[nH]c2-c2ccccc2)CC1,"inconclusive [inhibitor, partial curve, poor fit]"

row,Compound,Potency
1,COc1cc(OC)c(NC(=O)C2CCN(S(=O)(=O)c3ccc4c(c3)CC(C)N4C(C)=O)CC2)cc1Cl (configuration not stated),inactive
2,NC(=S)NNc1c(F)c(F)c(F)c(F)c1F,"inconclusive [inhibitor, single point]"
3,CNc1cc(Cl)c2nonc2c1[N+](=O)[O-],inactive
4,OC(COc1ccc(CNCCc2ccccc2F)cc1)CN1CCCCC1 (configuration not stated),active: 6.57 µM
5,Cc1cc(NC(=O)c2ccc(Br)c(S(=O)(=O)N3CCCC3)c2)no1,active: 10.4 µM
6,O=C(N/N=C/c1ccc(OCC(=O)N2CCCCC2)cc1)c1ccccc1,"inconclusive [inhibitor, partial curve, poor fit]"
7,CC(=O)Nc1ccc(S(=O)(=O)N/N=C/c2cccnc2)cc1,inactive
8,CCC(O)(c1ccccc1)C(CN1CCOCC1)c1ccccc1 (configuration not stated),"inconclusive [inhibitor, partial curve, poor fit]"
9,CNc1nc(N/N=C/c2ccc([N+](=O)[O-])cc2)nc(Nc2ccccc2)n1,active: 3.29 µM
10,CSc1ccc(/C=C/C(=O)c2c(O)cc(C)oc2=O)cc1,"inconclusive [inhibitor, single point]"
11,COc1ccc(Cl)cc1NC(=O)CN1CCC(n2nnc3cc(C)ccc32)CC1,"inconclusive [inhibitor, single point]"
12,N#Cc1ccc(C23CC4(C2)[C@H](CN(P(=O)(c2ccccc2)c2ccccc2)[C@@H]4c2ccccc2)C3c2ccc(Cl)nc2)cc1 (some centres not stated),active: 4.65 µM
13,O=C(NCCc1ccc(Cl)cc1)c1ccc2nc(N3CCOCC3)sc2c1,inactive
14,Cc1cc(N2C(=O)c3ccc(C(=O)Nc4ccccc4O)cc3C2=O)no1,"inconclusive [inhibitor, single point]"
15,C=CCn1c(-c2cccc(OC)c2)nc2nc3ccccc3nc21,inactive
16,CCOC(=O)C(Cc1ccccc1)C(=O)c1ccco1 (configuration not stated),"inconclusive [inhibitor, partial curve]"
17,CCn1cc(CN2CCN(CCC(C)C)C(CCO)C2)c2ccccc21 (configuration not stated),"inconclusive [inhibitor, partial curve]"
18,COc1ccccc1C(=O)N/C(=C/c1ccc(Br)cc1)C(=O)N1CCCC1,"inconclusive [inhibitor, partial curve, poor fit]"
19,Cc1cc(/C=C2\C(=O)NC(=O)N(Cc3ccccc3Cl)C2=O)c(C)n1-c1ccc(C(=O)O)cc1,inactive
20,CCc1ccc(-c2cc(C)no2)cc1S(=O)(=O)NCCc1ccccc1,inactive
21,CN(C1CCCCC1)S(=O)(=O)CCNC(=O)c1ccccc1,inactive
22,COC(=O)C1CCN(C(=O)CSc2nc3ccc(OC)cc3[nH]2)CC1,inactive
23,Cc1cc2nc(C)n(CCCNC(=O)Nc3ccc(F)cc3)c2cc1C,active: 11.7 µM
